The source of these data is ChEMBL document CHEMBL4888484, “Replenishing the malaria drug discovery pipeline: Screening and hit evaluation of the MMV Hit Generation Library 1 (HGL1) against asexual blood stage Plasmodium falciparum ,using a nano luciferase reporter read-out” (2022).

In all, about 4,800 compounds went through this assay and about 410 (8.5%) showed an effect of 50% or more. Some of the results follow.

A word on the % Inhibition: it is the change of the read-out against control, counted positive when it falls.

The test system of the assay is Plasmodium falciparum. Put plainly: Confirmatory screen in NF54 pLDH assay, in single point, at 2uM, 72h. In kind it is functional, Erythrocyte. The following applies: timepoint 72 hour.
Regarding `Cc1cccc(Cc2c(C)nn(-c3nc(C)cc(C)n3)c2O)c1`, the “% Inhibition” value was -7%.
Turning to `CCn1nc(C)c2c(C(=O)Nc3cc(C)ccc3C)cc(-c3ccc(C)cc3)nc21`, the “% Inhibition” value came to 7%.
With `COc1ccc(OC)c(CN2C(=O)c3cc4c(OC)ccc(OC)c4n3C[C@]2(C(=O)NC2CCCCCC2)c2ccccc2)c1`, the “% Inhibition” value worked out at 15%.
For `O=C(NCc1cccs1)c1cn[nH]c1-c1ccccc1`, the “% Inhibition” value is 0%.
Consider `Cn1ccc(NC(=O)c2n[nH]c3ccccc23)n1`, for which the “% Inhibition” value is -15%.
Regarding `COc1ccc(N2CCN(c3nccn4nc(-c5ccc(OC)c(OC)c5)cc34)CC2)cc1`, the “% Inhibition” value is -12%.
For `Cc1ccc(CNc2ncnc3c2cnn3-c2ccccn2)cc1`, the “% Inhibition” value was 12%.
On to `O=C(c1nc(-c2cccs2)cs1)N1CCN(c2ccccc2)CC1`, for which the “% Inhibition” value is recorded as -22%.
Consider `Cc1cncc(C(=O)N2CC(n3cnnc3C)C2)c1`, for which the “% Inhibition” value is listed as -13%.
Take `O=C(NC1CC1)c1cn(CC2(O)CCN(Cc3ccccc3)CC2)nn1`: the “% Inhibition” value came out at 16%.
For `Cc1cc(C)c(CC(=O)Nc2cnn(C)c2C2CC2)s1`, the “% Inhibition” value was 9%.
Take `CC(C)(C)NC1=Nc2ccccc2N[C@]12CCCN(C(=O)c1ccc3[nH]cnc3c1)C2`: the “% Inhibition” value is recorded as -20%.
Consider `Cc1cccc2c(-c3cc(N)nc(N)n3)c[nH]c12`, for which the “% Inhibition” value is recorded as 100%.
In the case of `CCN1CCCCc2cc(C(=O)N[C@@H](C)COC)sc21`, the “% Inhibition” value was -3%.
As for `CCc1nc(C(=O)[C@H](C#N)C(=O)Nc2cccc(C)c2)co1`, the figure is 0%; as for `Cc1nn(Cc2cccc(F)c2)c(C)c1NC(=O)c1cccc(COc2ccc(Br)cc2)c1`, 16%; as for `Cc1cc(C(=O)N2CCC[C@H]2c2nc(C3CCOCC3)no2)n(C)n1`, 12%.
In the case of `CCc1c(NC(=O)[C@@H](C)C2CC2)nnn1CCc1ccc(OC)cc1`, the “% Inhibition” value is 12%.
`CN1CCN(C(=O)[C@H](C(=O)c2ccccc2)n2cc(Cl)ccc2=O)CC1`: the “% Inhibition” value is reported as -20%.
Next, `Cc1cnc(NC(=O)C(=O)N2CCC[C@H](n3cccn3)C2)s1`: 4%.
Turning to `CCCC(C)(C)N(Cc1cccs1)Cc1nnc2n1CCOC2`, the “% Inhibition” value came to 10%.
On to `Cc1nc(C)c(CN2C(=O)C3CCCCC3C2=O)s1` (centres undefined), for which the “% Inhibition” value is given as -19%.
Regarding `Cc1cc(=O)c(CO)nn1CCCc1ccccc1`, the “% Inhibition” value is 11%.
With `O=C(OCC1OCC(n2cc(C(F)(F)F)c(=O)[nH]c2=O)O1)c1ccccc1` (centres undefined), the “% Inhibition” value is 6%.
Take `O=C(CCC(=O)N1CCCC1)NCc1ccc2c(c1)OCO2`: the “% Inhibition” value is -11%.
For `Cc1cc(N2CCn3c(nc4ccccc43)C2)ccc1NC(=O)C1CCCCC1`, the “% Inhibition” value was 14%.
Turning to `COCc1ncc(C)n1CCNC(=O)c1cc(-c2cc(C)ccc2C)n[nH]1`, the “% Inhibition” value turned out to be 3%.
For `CCc1cc(C(=O)N2CCC[C@H](C)C2)c2c(C3CC3)nn(-c3ccccc3)c2n1`, the “% Inhibition” value was 4%.
For the compound `CC1CCCN(c2nc(O)c3c(n2)NC(=O)CC3c2cccc(C(F)(F)F)c2)C1` (centres undefined), the “% Inhibition” value is 9%.
With `COc1ccccc1Cn1c(=O)c2sccc2n(CC(=O)NCCc2ccc(Cl)cc2)c1=O`, the “% Inhibition” value is listed as 8%.
Take `CC(C)C[C@@H]1N[C@H](C(=O)NCCN(C)C)Cc2c[nH]c3cccc1c23`: the “% Inhibition” value is -19%.
`Cc1cc(-c2ccco2)cc(Cl)c1N`: the “% Inhibition” value was 11%.
`Cn1cc(Oc2ccccc2C(=O)Nc2cccnc2O)cn1`: the “% Inhibition” value turned out to be 4%.
As to `COc1cccc(C(=O)c2c[nH]c(C(=O)NCc3cccc(C(F)(F)F)c3)c2)c1`, the “% Inhibition” value was determined as 6%.
Take `O=C(NCc1ccc(O)nc1)C1(Cc2cccc(Cl)c2)CCCC1`: the “% Inhibition” value stood at 6%.
For `CC(C)N(CCCNC(=O)c1cnn2c3c(cnc12)CCCCCC3)Cc1ccccc1`, the “% Inhibition” value turned out to be 9%.
Regarding `Cc1nc(N2CCOCC2)cc(N2CCN(C(=O)c3cccc(Br)c3)CC2)n1`, the “% Inhibition” value came out at 7%.
Take `Cn1nc(C(=O)N2CCCCC[C@H]2C2CCCCC2)ccc1=O`: the “% Inhibition” value is recorded as -7%.
Turning to `Cc1cccc(NC(=O)Cn2c(C(F)(F)F)nc3cc4c(cc32)OCCCO4)c1C`, the “% Inhibition” value came out at 12%.
As to `NC(=O)C1CCN(CCC(=O)N2CCc3cc4ccc3[C@@H]2c2cccc(c2)OCCCNC(=O)c2cc(ccc2O)O4)CC1`, the “% Inhibition” value turned out to be 93%.
`CC(C)OC[C@@H](O)CN1CC(C2CCC2)C1`: the “% Inhibition” value is recorded as -19%.
For `Cc1cccc(-n2c(-c3sc(Nc4ccccc4)nc3-c3ccccc3)nc3ccccc3c2=O)c1`, the “% Inhibition” value was determined as 11%.
With `CC(C)(C)CCS(=O)(=O)N1CCC[C@H]1C1CCCCC1`, the “% Inhibition” value is given as 8%.
With `CCOC(=O)c1c(CN2CCCC2)n(C)c2cc(-c3cccnc3)c(O)c(Cn3ccnc3)c12`, the “% Inhibition” value is 68%.
Regarding `COc1c(S(=O)(=O)c2ccc(C#N)cc2)cnc2ccc(Cl)cc12`, the “% Inhibition” value was -20%.
As for `O=C(CN1N=C(C(=O)Nc2ccccc2)CCC1=O)Nc1ccc(OC(F)(F)F)cc1`, the “% Inhibition” value is given as -8%.
In the case of `COc1ccc(Oc2nccc(-c3ccc(F)cc3)c2C#N)cc1`, the “% Inhibition” value was found to be 15%.
Next, `Cc1cc(=O)[nH]c(-n2nc(C3CC3)cc2NC(=O)C(C)(C)Oc2ccc(Cl)cc2)n1`: 82%; `COc1ccc2cc(S(=O)(=O)n3ccc(C)n3)ccc2c1`: 0%; `CC(=O)NCCNC(=O)Nc1ccccc1N(C)C1CCCC1`: -5%.
With `Cc1ccc(NC(=O)CC(=O)O)c(C)c1`, the “% Inhibition” value was -5%.
In the case of `Cn1c(=O)c2c(c(-c3ccccc3)cn2C)n(CC(=O)Nc2cc(Cl)cc(Cl)c2)c1=O`, the “% Inhibition” value is reported as -13%.
On to `CCc1sc(N(C(=O)CCc2ccccc2)c2ccc(C)cc2C)nc1-c1ccc(OC)cc1`, for which the “% Inhibition” value was found to be 9%.
As for `CN(c1ncc(S(=O)(=O)c2ccccc2)c(N)n1)C1CCCCC1`, the figure is -19%; as for `CCC(=O)Nc1nc2ccc(NS(=O)(=O)Cc3ccccc3)cc2s1`, 3%.
For `NC(=O)NOCc1cccc(Cl)c1`, the “% Inhibition” value turned out to be 6%.
As for `O=C(Nc1cc(N2CCCS2(=O)=O)ccc1O)c1cccc(Oc2cccc(C(F)(F)F)c2)c1`, the “% Inhibition” value is 97%.
Next, `CC(C)c1cc(=O)[nH]c(-n2nc(C3CC3)cc2NC(=O)c2ccc(F)cc2)n1`: 89%; `Nc1ccc2c(c1)Oc1cc(N)ccc1OCCOCCOCCO2`: -8%; `Cc1cc(Br)c2c(c1)C(O)(N1CCCC(C)C1)C(=O)N2` (centres undefined): 9%.
`COc1cc2c(cc1OC)[C@@H](NC(=O)c1cnc(C3(C)OCCO3)s1)CCCC2`: the “% Inhibition” value came to 49%.
With `O=C(Nc1ncc(Cc2ccc(Cl)c(C(F)(F)F)c2)s1)c1ccc2nnsc2c1`, the “% Inhibition” value is 10%.
Take `O=C(Nc1cnc(-n2ccnc2)nc1)C(c1ccccc1)c1ccccc1`: the “% Inhibition” value was 29%.
With `Cc1cccc(CNC(=O)c2ccc3c(c2)N(C)[C@@H]2CCCCCN2C3=O)c1`, the “% Inhibition” value came to 4%.
